Results taken from PubChem BioAssay AID588855 (National Center for Advancing Translational Sciences (NCATS), 2011).
The whole screen tested about 410,000 compounds, of which about 5,000 (1.2%) were called active. Inconclusive results, whose numbers are uncertain, are shown with a selection of clear calls. Calls come from the whole dose curve; as a rule, active = well fitted inhibition curve with a large enough effect; inconclusive = small, poorly fitted or top-dose-only effect; inactive = no such curve, though single readings can be large or run the other way. Potencies of inconclusive entries are doubtful fits and often do not repeat.
% is set by controls: 0 for no effect and ±100 for the full control effect; potency is the fitted concentration of half-maximal effect; tags give direction and shape of the fitted curve.

Assay: qHTS for Inhibitors of TGF-b; note: nearly all actives have a fitted effect of over 65% in size
Details: HepG2 CAGA-GFP TGF-b/SMAD3 reporter, GFP fluorescence, 18 h, TGF-beta stimulated, 500 pg/mL final; series mostly up to 46.1 µM; activity, negative = inhibition: at the top concentration
Summary of the method: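 HEPG2 CAGA-GFP, 1000 cells/well; 2 h settle, 37 C; cpd via pin tool; TGF-b 500 pg/mL final; 18 h, 37 C; GFP imaging ex488/em500-530; %Activity normalised to -TGF-b and +DMSO controls; CRC fit, curve class.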
For `O=C(O)c1ccc2c(c1)S(=O)(=O)c1cc(N3CCN(c4cnccn4)CC3)ccc1C2=O`, the “activity, negative = inhibition” value was inactive: 8.64%.
With `O=C(C1CCN(S(=O)(=O)c2ccc(Br)s2)CC1)N1CCc2ccccc21` the Potency was inconclusive: 35.5 µM [inhibitor, single point].
For `Cc1cccc(OCc2nnc(SCC(=O)NCCc3ccccc3)o2)c1`, the “activity, negative = inhibition” value was inactive: -0.0986%.
For `NC(=O)Cc1ccc(C(=O)c2ccc(Cl)cc2)s1`, the Potency was inconclusive: 14.1 µM [inhibitor, single point].
In the case of `COc1ccc(-c2onc(C)c2C)cc1S(=O)(=O)N(C)Cc1ccco1`, the Potency is reported as inconclusive: 20 µM [inhibitor, single point].
With `O=C(Nc1ccc(Br)cn1)c1ccc([N+](=O)[O-])o1` the Potency was active: 10 µM.
For `Cc1ccc(/C=C/C(=O)Nc2nnc(SCc3ccc(C#N)cc3)s2)o1`, the Potency was inconclusive: 8.91 µM [inhibitor, partial curve, poor fit].
With `C[C@H](CO)N1C[C@H](C)[C@@H](CN(C)S(=O)(=O)c2ccccc2)Oc2ccc(NC(=O)Nc3ccc4c(c3)OCO4)cc2C1=O` the Potency was inconclusive: 3.55 µM [inhibitor, single point].
For `Cc1ccc(Cn2cc(/C=N/Nc3ccc([N+](=O)[O-])cn3)c3ccccc32)cc1`, the Potency was active: 4.47 µM.
With `COc1nc(N(C#N)CC(N)=O)nc(N2CCCC2)n1` the Potency was inconclusive: 3.55 µM [inhibitor, partial curve].
With `COc1ccc(C(=O)Nc2nc3ccccc3s2)cc1` the Potency was inconclusive: 35.5 µM [inhibitor, single point].
With `COc1ccc(OCCCCn2c(C3CC(=O)N(c4cccc(Cl)c4)C3)nc3ccccc32)cc1` (centres undefined) the Potency was inconclusive: 6.31 µM [inhibitor, partial curve].
With `CS(=O)(=O)c1ccc2nc(NC(=O)c3ccc(NS(=O)(=O)c4ccc(F)c(F)c4)cc3)sc2c1` the Potency was inconclusive: 2.24 µM [inhibitor, full curve, poor fit].
For `CCCn1c(=NC(=O)CCS(=O)(=O)c2ccccc2)sc2cc(S(N)(=O)=O)ccc21`, the “activity, negative = inhibition” value was inactive: 0%.
For `COc1ccc(-c2nc(-c3cccs3)c(-c3cccs3)[nH]2)cc1OC`, the “activity, negative = inhibition” value was inactive: -1.82%.
For `COc1ccc(CCNc2ncnc3c2cnn3-c2cccc(Cl)c2)cc1`, the “activity, negative = inhibition” value was inactive: -4.28%.
For `O=C(Cc1cccs1)N/N=C/C=C/c1ccco1`, the Potency was inconclusive: 11.2 µM [inhibitor, partial curve, poor fit].
With `CC(C)CCNC(=O)c1ccc2c(c1)NC(=O)C(CS(=O)(=O)Cc1cccc(Br)c1)N2` (centres undefined) the “activity, negative = inhibition” value was inactive: 1.68%.
With `COC(=O)C(Cc1ccccc1)NC(=O)c1cc(=O)[nH]c2ccccc12` (centres undefined) the “activity, negative = inhibition” value was inactive: 16.8%.
With `COc1ccc(NC(=O)Cn2nc(-c3ccncc3)ccc2=O)cc1Cl` the “activity, negative = inhibition” value was inactive: -1.99%.
For `O=C(NC1CCCCC1)N1CCC(c2nc3ccc(Cl)cc3[nH]2)CC1`, the Potency was inconclusive: 22.4 µM [inhibitor, single point].
In the case of `CCOC(=O)c1ccc2c(c1)NC(=O)C(N1CCN(c3ccc(OC)cc3)CC1)S2` (centres undefined), the Potency is reported as inconclusive: 11.2 µM [inhibitor, single point].
With `CC1(CCCN2C(=O)c3ccccc3C2=O)OCCO1` the “activity, negative = inhibition” value was inactive: 34.7%.
In the case of `CC(=O)Nc1cc(-c2cccnc2)cn2c(-c3cccc(C(F)(F)F)c3)cnc12`, the “activity, negative = inhibition” value is reported as inactive: -24.6%.
For `Cc1c(NC(=S)NC(=O)c2cc3ccccc3o2)cccc1C(=O)O`, the “activity, negative = inhibition” value was inactive: -1.47%.
With `CCOC(=O)NC(=O)c1cn(Nc2ccccc2)c(=O)[nH]c1=O` the “activity, negative = inhibition” value was inactive: 7.36%.
For `CCCCCOc1ccc(C(C)(O)C(CN2CCOCC2)c2ccccc2)cc1` (centres undefined), the Potency was inconclusive: 22.4 µM [inhibitor, single point].
With `CCOC(=O)Cn1nc(C)cc1NC(=O)c1ccncc1` the “activity, negative = inhibition” value was inactive: 10.7%.
For `CC1=C(C)/C(=N\OC(=O)/C=C/c2ccccc2)C=CC1=O`, the “activity, negative = inhibition” value was inactive: 7.91%.
For `COc1ccccc1C1(CC(=O)Nc2nccs2)CCOC(C(C)C)C1` (centres undefined), the Potency was inconclusive: 35.5 µM [inhibitor, single point].
For `CCOC(=O)c1cc(-c2ccccc2)n(CC(=O)N(C)c2ccc(OC)cc2)c1C`, the Potency was inconclusive: 1 µM [inhibitor, full curve, poor fit].
For `CCC[C@H]1CN(c2ccccc2)C(=O)[C@@H]1CC(=O)Nc1ccc(Br)cc1`, the “activity, negative = inhibition” value was inactive: 16.8%.
In the case of `CCCCC(CC)CNC(=O)CCCn1c(=O)[nH]c2ccsc2c1=O` (centres undefined), the Potency is reported as inconclusive: 25.1 µM [inhibitor, single point].
With `CCOC(=O)c1ccc(S(=O)(=O)NCC(c2ccc(N(C)C)cc2)c2c[nH]c3ccccc23)cc1` (centres undefined) the Potency was inconclusive: 35.5 µM [inhibitor, single point].
For `O=C(O)c1cccc(NC(=S)NC(=O)c2ccc3ccccc3c2)c1`, the “activity, negative = inhibition” value was inactive: -1.2%.
For `Cc1ccnc2nc(C(=O)OCC(=O)NCCc3ccc(Cl)cc3)nn12`, the Potency was inconclusive: 5.62 µM [inhibitor, single point].
In the case of `N#Cc1ccc(NC(=O)Nc2cccc(C#N)c2)cc1`, the Potency is reported as inconclusive: 35.5 µM [inhibitor, single point].
In the case of `Cc1ccc(-c2nc(N3CCN(c4ccccc4Cl)CC3)c3ccccc3n2)cc1`, the “activity, negative = inhibition” value is reported as inactive: -1.52%.
In the case of `CCC1(CC)Cc2ccccc2-c2nc(NCCO)[nH]c(=O)c21`, the Potency is reported as inconclusive: 4.47 µM [inhibitor, partial curve].
For `COc1ccc(NC(=O)Cn2nnc(C(=O)NCCc3ccccc3)c2N)c(OC)c1`, the “activity, negative = inhibition” value was inactive: 7.85%.
In the case of `CC(C)(O)C#Cc1ccc([C@@H]2C[C@H]3CN(c4ccccc4)C(=O)[C@]34CCCN24)s1`, the Potency is reported as active: 2.24 µM.
In the case of `COc1cccc(-c2nc(CSCC(=O)NCCc3ccc(Cl)cc3)c(C)o2)c1`, the Potency is reported as inconclusive: 11.2 µM [inhibitor, partial curve, poor fit].
For `Cc1ccc[n+](CC(=O)c2ccc(Br)cc2)c1`, the “activity, negative = inhibition” value was inactive: -5%.
In the case of `CCCCN(CCCC)CC(O)Cn1cc(/C=C/C(=O)c2ccccc2)c2ccccc21` (centres undefined), the Potency is reported as inconclusive: 22.4 µM [inhibitor, single point].
For `O=C1[C@H]2CCC=C[C@H]2[C@H](c2cccc(Br)c2)N1Cc1ccccc1`, the Potency was inconclusive: 28.2 µM [inhibitor, single point].
For `CCC1(C)Cc2ccccc2-c2nc(NCCO)n(-c3ccccc3)c(=O)c21` (centres undefined), the “activity, negative = inhibition” value was inactive: 3.34%.
In the case of `COc1ccc(-c2nc(CSCC(=O)N3CCN(c4ccc(OC)cc4)CC3)c(C)o2)cc1`, the Potency is reported as inconclusive: 3.16 µM [inhibitor, single point].
For `COc1cc2ccccc2cc1C(=O)NC(=S)Nc1nnn(C)n1`, the Potency was inconclusive: 14.1 µM [inhibitor, single point].
With `COc1ccccc1C(=O)N/C(=C/c1ccc2c(c1)OCO2)C(=O)Nc1ccc(C(=O)O)cc1` the Potency was inconclusive: 0.891 µM [inhibitor, partial curve, poor fit].
In the case of `Cc1cccc2c(C(=O)N3CCN(c4ccccc4)CC3)cc(-c3ccncc3)nc12`, the Potency is reported as inconclusive: 14.1 µM [inhibitor, partial curve, poor fit].
In the case of `COc1cccc(-c2cnc(C(O)c3ccc(F)c(C)c3)[nH]2)c1` (centres undefined), the “activity, negative = inhibition” value is reported as inactive: 15.1%.
With `CC1(C)O[C@H]2CC(=O)OC[C@]23[C@H]2CC[C@@]4(C)[C@H](c5ccoc5)OC(=O)[C@H]5O[C@]54[C@]2(C)[C@@H](O)C[C@@H]13` the Potency was inconclusive: 3.16 µM [inhibitor, partial curve, poor fit].
With `COc1ccc(-c2csc(NC(=O)CSc3nnnn3C)n2)cc1OC` the “activity, negative = inhibition” value was inactive: -7.94%.
In the case of `Cn1c(Cl)cnc1C1CC(=O)c2cc(Cl)ccc2O1` (centres undefined), the Potency is reported as inconclusive: 35.5 µM [inhibitor, single point].
In the case of `COc1ccc(N2CCN(C(=O)c3ccc(CS(=O)(=O)c4ccccc4C)o3)CC2)cc1`, the Potency is reported as inconclusive: 35.5 µM [inhibitor, single point].
For `O=C(NCc1ccccn1)c1ccc(OC2CCN(Cc3ccc(F)cc3F)CC2)cc1`, the Potency was inconclusive: 35.5 µM [inhibitor, single point].
With `O=c1[nH]c2sc3c(c2c2nncn12)CCCC3` the “activity, negative = inhibition” value was inactive: -26.6%.
For `CCN(CCCNC(=O)c1cc2cc3ccc(C)cc3nc2s1)c1ccccc1`, the Potency was active: 6.31 µM.
With `C=CCc1cccc2cc(C(=O)Nc3ccc(CC(=O)O)cc3)c(=O)oc12` the “activity, negative = inhibition” value was inactive: -28.9%.
With `COc1ccc(CCNC(=O)CSc2nnc(-c3cccc(C)c3)o2)cc1OC` the Potency was inconclusive: 0.501 µM [inhibitor, full curve, poor fit].
With `O=C(c1cccc(F)c1)N(Cc1nc2ccccc2c(=O)[nH]1)C1CCCC1` the Potency was inconclusive: 35.5 µM [inhibitor, single point].
With `CCS(=O)(=O)N1CC(=O)N(c2cccc(Cl)c2C)C(C)(C(=O)NC2CCCCC2)C1` (centres undefined) the Potency was inconclusive: 0.891 µM [inhibitor, full curve, poor fit].
In the case of `O=S(=O)(c1ccc(N=C2NN=C(c3cc(F)ccc3F)CS2)cc1)N1CCOCC1`, the “activity, negative = inhibition” value is reported as inactive: -24.5%.
With `Nc1cc(-c2ccccc2)nn1Cc1ccc(Cl)cc1` the Potency was inconclusive: 5.01 µM [inhibitor, partial curve, poor fit].
With `COc1cccc(-n2c([S-])c(C(=O)Nc3ccc(S(=O)(=O)N4CCOCC4)cc3)[n+]3cc(C(N)=O)ccc23)c1` the “activity, negative = inhibition” value was inactive: 1.13%.
In the case of `COc1ccc2nc(C)cc(Sc3nc4ccccc4s3)c2c1`, the Potency is reported as inconclusive: 35.5 µM [inhibitor, single point].
For `Cc1cccc(N2CCN(CC(=O)Nc3ccc(S(=O)(=O)N4CCOCC4)cc3)CC2)c1C`, the Potency was inconclusive: 17.8 µM [inhibitor, single point].
In the case of `C[C@H](CO)N1C[C@H](C)[C@@H](CN(C)S(=O)(=O)c2cccs2)Oc2c(NS(=O)(=O)c3ccc(F)cc3)cccc2C1=O`, the “activity, negative = inhibition” value is reported as inactive: 0.715%.
In the case of `Brc1ccc(-c2n(-c3ccccn3)c3ccccc3[n+]2-c2ccccn2)cc1`, the Potency is reported as inconclusive: 35.5 µM [inhibitor, partial curve, poor fit].
